According to the supplement of paper PMC11417369:
± gives the standard deviation of the averaged measurements. This is one part of the list.

What follows are sequences tested on PfAP2-EXP AP2 domain (GST-tagged) (assay: gcPBM binding intensity (ln(normalized median fluorescence intensity)); higher = stronger DNA binding).
Summary of the method: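 Using an Agilent 4 × 180k array, primer-extended double-stranded 36-bp intergenic genomic probes and negative controls were exposed for 1 h to GST-fused P. falciparum DNA-binding domains expressed in E. coli. Binding was carried out in 1× PBS with 1% milk, 0.2 mg/ml BSA, 0.5% salmon testes DNA and 0.03% Triton X-100, and protein was detected with Alexa488 anti-GST antibody and a 488 nm scan. Binding intensity is the highest Masliner-normalised natural-log median intensity across replicate spots of either probe orientation.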

Sequence | gcPBM binding intensity (ln)
TTTTTATTCGTTAAATGTACAAAAAAAATGTTATAT [XGTACX_site2804] | 8.42 ± 0.41
GCTTAGTTATATAACTGTACTATTTTTATTTATATG [XGTACX_site884] | 9.16 ± 0.83
AAATACATACATTAATGTACAAATAGAAACACTCTT [XGTACX_site1512] | 8.51 ± 0.18
AAATATAAGTAAATAAATAAATATATAAATATATAA [TGCATGCA_negctrl_site441] | 8.12 ± 0.28
AATAAGATAAGGAAAAGTACTTATAATTAAACTAAT [XGTACX_site1850] | 8.79 ± 0.43
CTCATAGTTGGGTGCACACAAAAAATTAAAAAAATA [CACACA_site3032] | 9.81 ± 0.94
ATAAAGTAAGAAGAAATAATGATTTTCATGGAAAAC [XGTACX_negctrl_site322] | 8.51 ± 0.47
TTATTTAAAAATAGCACACATTATATATATATATAT [CACACA_site5556] | 9.95 ± 0.29
ACAGATGATCAAAATTGTACAGAGTTATATTATATT [XGTACX_site4642] | 8.46 ± 0.57
CTTATACAAAAAAAAAGTACATAACATAATAAGAAT [XGTACX_site6782] | 8.96 ± 0.42
GATAAACCATATATAACACACATATGAATATTGCAA [CACACA_site6735] | 8.59 ± 0.4
CACCCATACAGACATACACACACATATATATTAATA [CACACA_site8077] | 8.85 ± 0.66
ATATCATATATAAGTCGTACGATGAATAGAATTTTT [XGTACX_site7586] | 8.73 ± 0.52
CACATGTATTTATAGGTGCGTAAAAACACTTTATAT [GTGCAC_site9501] | 8.7 ± 0.057
ACTAATTACTATAAAACACACATATATTTATTTATA [CACACA_site7263] | 8.51 ± 0.34
TTATAGAAACATTGGTGTACGATATTTACTTCTTTC [XGTACX_site7314] | 8.36 ± 0.48
AATCATATTAGTATGGTGCAATATATATATAAATAT [GTGCAC_site9800] | 8.99 ± 0.028
GGAATAGTCGGGTGCATACACACCTTAAATATAATA [CACACA_site1081] | 8.84 ± 0.31
AAAGAAAATTCAATAGTGCATAAAAATATATATGTT [GTGCAC_site9680] | 8.64 ± 0.27
TAAAAAAATTCATGCACACGAAATAAAAAGCACCTT [CACACA_site4667] | 9.14 ± 0.057
TTTTTTAAAAGATAATATTTTATTAATGTATTCTCA [GTGCAC_negctrl_site598] | 7.85 ± 0.37
AATACATACATACATACACACATATATATATATTAT [CACACA_site3575] | 8.78 ± 0.33

Sequence | gcPBM binding intensity (ln)
TTTTCATTTTTTCGTTGTACATAAATAATATATATT [XGTACX_site856] | 8.96 ± 0.38
AAACATAAATTTTATTGTACATTATATAGAATTTTC [XGTACX_site576] | 8.21 ± 0.51
TTTTACTATACTTATGCACACAAGATATATACATAT [CACACA_site2968] | 8.6 ± 0.3
TATTAAAAGGTGAGTACACACATATATGTGTATATA [CACACA_site7070] | 8.63 ± 0.14
ATATATATATATATATGTACACAGGACAATAATCCT [XGTACX_site6383] | 10.2 ± 0.33
ATCATGAAATATATTTGTACACATAATAATATAATA [XGTACX_site8798] | 8.57 ± 0.28
ATTTGGCAGAAACACACACACACACCCACCCACATA [CACACA_site589] | 9.07 ± 0.44
TTTTTTTTTATAAATACACACGTACGGGTGCATAAC [CACACA_site8444] | 9.1 ± 0.38
TTTTTGTTTGAACACTGTACGTATAAATATAAAAGT [XGTACX_site6476] | 8.885 ± 0.078
AATGTACACCCACCCACACACAAACAAATATATATA [CACACA_site5521] | 9.51 ± 0.59
AATGTGTTTTTTTTTTTTTTTTTTTTCAATCTCTAT [CACACA_negctrl_site794] | 8.3 ± 0.52
GAAAAAAGAAAAAAAAGTACACACATGTATATTAAT [XGTACX_site5265] | 8.59 ± 0.55
TTATATTATGTTCAATCAAAAATTATTTTTAAAAAA [XGTACX_negctrl_site595] | 8.29 ± 0.25
TATATATAAAAACACACACACACACCCTATAATTAT [CACACA_site4063] | 8.89 ± 0.61
TTTCAAATTTAATACACACACAAGTATATATTTATC [CACACA_site3947] | 8.3 ± 0.43
TTGTGTTATCACACGAAGGGGATAAGACATAAATGT [TGCATGCA_negctrl_site368] | 8.49 ± 0.49
AATAATACATCCTTAGTGCAGAAATAAAAATTAAGC [GTGCAC_site9955] | 8.77 ± 0.3
TTTTCATTTGTGACAGTGCAAAATGTTATATTAAAA [GTGCAC_site9647] | 8.54 ± 0.29
TATAAAATGATGATATGTACTTATGTAGTTTTTTTA [XGTACX_site8711] | 8.07 ± 0.28
AATATATGGTTTCATGATATTAAATTCAAAATAATG [CACACA_negctrl_site318] | 8.21 ± 0.42
TATTTATTGTGACACTTATATTATTTTATGATTAAA [CACACA_negctrl_site525] | 8.48 ± 0.28
TTTGTAATAAATAAGAGTACAAGTATGGTTCCACTA [XGTACX_site2579] | 8.47 ± 0.35
